Laboratory results as given in PubChem BioAssay AID686971 (National Center for Advancing Translational Sciences (NCATS), 2013).
About 7,500 (2.1%) of roughly 360,000 compounds were called active. Inconclusive means that the source gave no clear call. Such entries were picked first, then a sample of the others. Calls come from the whole dose curve; as a rule, active = well fitted cell-killing curve with a large enough effect; inconclusive = small, poorly fitted or top-dose-only effect, or effect the other way, or another doubt; inactive = no such curve, though single readings can be large or run the other way. Potencies of inconclusive entries are left out as doubtful fits.

Test: qHTS for induction of synthetic lethality in tumor cells producing 2HG: qHTS for the HT-1080-IDH1KD cell line;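 for activity, negative = toxicity: 0% = DMSO wells and -100% = cell-free medium wells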
Conditions: HT-1080 IDH1 knockdown viability, ATP luminescence, 48 h; activity, negative = toxicity: at 46.1 µM (top of the series) unless noted
In short: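 IDH1KD HT-1080 cells, 750/well, RPMI + 5% FBS; compound pinned after 2 h settling; 48 h, 37 °C; CellTiter-Glo luminescence; % activity normalised to DMSO and no-cell wells; curves fitted, classed by r2 and efficacy.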
Potency is the fitted concentration of half-maximal effect; tags give direction and shape of the fitted curve.

| SMILES | Potency | activity, negative = toxicity |
| --- | --- | --- |
| CCCCCCn1c(=O)n2n(c1=O)[C@@H]1CN(S(=O)(=O)c3ccc(C)cc3)C[C@]1(O)[C@@H](OC(=O)NCC1CCCCC1)C2 | inconclusive [cytotoxic, single point] |  |
| Cc1cccc2cc(/C=C/C(=O)c3ccco3)c(Cl)nc12 | inactive |  |
| CN(CCO)C(=O)c1nc[nH]c1C(=O)N1CCN(C(=O)OC(C)(C)C)CC1 | inactive |  |
| CC(C)(C)NC(=O)C(c1ccncc1)N(Cc1ccco1)C(=O)c1ccc(-c2ccccc2)[nH]1 (stereo not drawn) | active: 18.4 µM |  |
| CC(C)c1ccc(NC(=O)C2Cc3c(-c4cccc(F)c4)ccnc3O2)cc1 (stereo not drawn) | inconclusive [cytotoxic, single point] |  |
| COc1ccc(OC)c(Nc2ncnc3ccc(Br)cc23)c1 | inactive |  |
| C/C(=N\NC(=O)NC1CCCCC1)c1ccc(OC(F)F)cc1OC(F)F | inconclusive [cytotoxic, single point] |  |
| Cc1cc(NC(=O)c2ccccc2-c2ccccc2)ccc1Br | inconclusive [cytotoxic, single point] |  |
| COc1ccc2cc3cc(C(=O)NCC4COc5ccccc5O4)oc3nc2c1 (stereo not drawn) | inconclusive [cytotoxic, single point] |  |
| Cc1cnc(CNC(=O)C2(C)CCCN2CC(C)C)cn1 (stereo not drawn) | inconclusive [rising, single point] |  |
| COc1cc(/C=C2\C(=O)N(c3ccccc3)N=C2C)ccc1Oc1ccc([N+](=O)[O-])cc1[N+](=O)[O-] | inconclusive [cytotoxic, single point] |  |
| N/C(=N\N=C\c1cccs1)SC1CC(=O)N(c2ccc(Br)cc2)C1=O (stereo not drawn) | inconclusive [cytotoxic, partial curve] |  |
| COc1ccc(CN2C(=O)C(C)Nc3ncnc(N4CCc5ccccc5C4)c32)cc1 (stereo not drawn) | active: 2.31 µM |  |
| Cc1cccc(C)c1-n1nnnc1C1(Nc2ccccc2)CCCCC1 | inactive |  |
| Brc1ccc2ncnc(Nc3cccc4ccccc34)c2c1 | inconclusive [cytotoxic, single point] |  |
| Cc1ccc2c(c1)c1c(n2CC(O)Cn2ccnc2C)C(=O)CCC1 (stereo not drawn) | inactive |  |
| Cc1ccc(CNS(=O)(=O)c2ccc(-c3cnc(C4CC4)o3)cc2)cc1 | inactive |  |
| CCCCCc1cc(=O)oc2c(C(CCN3CCCC(C)C3)c3cc(OC)c(OC)c(OC)c3)c(OC)cc(OC)c12 (stereo not drawn) | inconclusive [cytotoxic, single point] |  |
| Cc1ccc(S(=O)(=O)c2c(N)n(C)c3nc4ccccc4nc23)cc1 | inconclusive [cytotoxic, partial curve] |  |
| Cc1nnc(NC(=O)C(C)Sc2nnc(CNC(=O)c3ccccc3F)n2C)s1 (stereo not drawn) | inactive |  |
| CCc1cccc(NC(=O)C2CCCN2S(=O)(=O)c2ccc3c(c2)CC(C)N3C(C)=O)c1 (stereo not drawn) | inactive |  |
| COc1ccc(-n2c(C)cc(C(=O)NC3CCCCC3)c2C)cc1 | inconclusive [cytotoxic, single point] |  |
| CCC(C)(C)n1nnnc1C(c1cc2ccc(OC)cc2[nH]c1=O)N1CCc2ccccc2C1 (stereo not drawn) | inconclusive [cytotoxic, single point] |  |
| Cc1cc(O)c(/C=N/Nc2ccccc2)c(=O)o1 | inconclusive [cytotoxic, full curve] |  |
| O=[N+]([O-])CC(c1ccc(F)cc1)c1c[nH]c2ccccc12 (stereo not drawn) | inconclusive [cytotoxic, single point] |  |

| SMILES | Potency | activity, negative = toxicity |
| --- | --- | --- |
| CCc1ccc2cc3c(cc2n1)C(=O)c1ccccc1-3 | inactive |  |
| C=CCn1c(=O)[nH]c2cc(C(=O)N3CCN(c4ccc(C(C)=O)cc4)CC3)ccc2c1=O | inconclusive [cytotoxic, partial curve] |  |
| Cc1ccc(SC(C)c2nc(-c3ccncc3)no2)cc1 (stereo not drawn) | inconclusive [cytotoxic, partial curve] |  |
| CCc1ccccc1OCC(=O)NC1CCCC1 | inactive |  |
| Cc1ccc(OCCNC(=O)c2ccccc2O)cc1 | inactive |  |
| CCn1cc(C2=NC(C)(C)CO2)c2ccccc21 | inconclusive [cytotoxic, single point] |  |
| c1ccc(Cn2c[n+](Cc3ccccc3)c3ccccc32)cc1 | inconclusive [cytotoxic, single point] |  |
| Cc1ccc(-c2nc(NC(=O)CSc3ncn[nH]3)ns2)cc1 | inconclusive [rising, partial curve] |  |
| Cc1ccc(/C=N/Nc2nc(N3CCCCC3)nc(N3CCCCC3)n2)o1 | inactive |  |
| COc1ccc(OC)c2sc(N3CCN(C(=O)c4ccc5ncsc5c4)CC3)nc12 | inactive |  |
| CCOCc1cn(CC(=O)c2ccc([N+](=O)[O-])cc2)c(C)nc1=N | inconclusive [cytotoxic, single point] |  |
| O=S(=O)(/N=C(/c1ccccc1)N1CCOCC1)c1ccc(F)cc1 | inactive |  |
| CCC(CC)CN1CCN=C1N(C)C | inactive |  |
| COc1ccccc1OCC(=O)N/N=C/c1cccc2cccnc12 | inactive |  |
| O=C(c1ccc(Cl)cc1)c1cc([N+](=O)[O-])ccc1N1CCOCC1 | active: 1.16 µM |  |
| Cc1cc(C(=O)N/N=C/C=C/c2ccccc2)n[nH]1 | inconclusive [rising, partial curve] |  |
| C[C@H]1c2cccc(O)c2C(=O)C2C(=O)C3(O)C(=O)C(C(N)=O)C(=O)[C@@H](N(C)C)[C@@H]3[C@@H](O)[C@@H]21 (stereo partly drawn) | inconclusive [cytotoxic, single point] |  |
| COc1ccc(C(NC(=O)C2CCN(C/C=C/c3ccc(OC(C)=O)c(OC)c3)CC2)c2ccccn2)cc1 (stereo not drawn) | inconclusive [cytotoxic, single point] |  |
| CCCCNC(=O)C1(C)CCCCN1C(=O)c1cc(OC)ccc1Br (stereo not drawn) | inconclusive [rising, single point] |  |
| Cc1ccc(C(=O)NCCc2nnc3ccc(SCC(=O)Nc4ccccc4F)nn23)cc1 | inactive |  |
| C/C(=N\NC(=S)NC(C)C)c1ccc(Cl)c([N+](=O)[O-])c1 | inactive |  |
| O=C(c1ccccc1CCc1ccccc1)N1CCN(c2ccccn2)CC1 |  | inconclusive: -31.5% [cytotoxic] |
| O=C(OCn1nnc2ccccc2c1=O)c1ccc2c(=O)n3c(nc2c1)CCC3 |  | inactive: -3.54% [at 9.24 µM] |
| O=C(O)c1ccc(N/N=C/c2cccc3nccnc23)cc1 | inconclusive [cytotoxic, partial curve] |  |
| COC(=O)C1CCN(C(=O)[C@H](C)NC(=O)C2CC(=O)N(c3ccc(F)cc3)C2)CC1 (stereo partly drawn) | inactive |  |

| SMILES | Potency | activity, negative = toxicity |
| --- | --- | --- |
| COC(=O)c1cccc(NC(=O)c2ccc(S(=O)(=O)N(C)c3ccccc3OC)cc2)c1 | inactive |  |
| COc1ccccc1N1CCN(CC(O)COc2ccc3c(c2)CCC3)CC1 (stereo not drawn) | inconclusive [cytotoxic, single point] |  |
| OC[C@@H]1CN(Cc2ccc(-c3ccccc3)cc2)C[C@H](n2cnc3c(NC4CC4)ncnc32)O1 | inconclusive [cytotoxic, partial curve, poor fit] |  |
| O=C(N/C(=C/c1ccco1)C(=O)N1CCCCCC1)c1cccs1 | inconclusive [cytotoxic, single point] |  |
| CC(/C=N/NC(=O)c1cc(-c2ccccc2)nc2ccccc12)=C\c1ccco1 | inconclusive [cytotoxic, partial curve] |  |
| C=CCSCC1Nc2cc(Cl)c(S(N)(=O)=O)cc2S(=O)(=O)N1 (stereo not drawn) | inactive |  |
| COCCOC(=O)C1=C(C)OC(N)=C(C#N)C1c1cc2cccc(C)c2nc1Cl (stereo not drawn) | inconclusive [cytotoxic, single point] |  |
| COc1ccc(S(=O)(=O)N(CCCN2CCOCC2)Cc2cccc(OC)c2OC)cc1 | inactive |  |
| Cc1ccccc1S(=O)(=O)NC(=O)C1(C)CCN1C(=O)c1cccc2ccccc12 (stereo not drawn) | inconclusive [rising, single point] |  |
| O/N=C/c1cn(-c2ccccc2)nc1-c1ccccc1 | inconclusive [cytotoxic, single point] |  |
| OC[C@@H]1CN(Cc2ccc(-c3ccccc3)cc2)C[C@H](n2cnc3c(N4CCOCC4)ncnc32)O1 | active: 20.6 µM |  |
| Cc1cc2nn(-c3ccccc3)nc2cc1NC(=O)c1cccs1 | inconclusive [cytotoxic, single point] |  |
| CC1(C(=O)N/N=C/c2c(F)c(F)c(F)c(F)c2F)CC1(Cl)Cl (stereo not drawn) | inconclusive [cytotoxic, single point] |  |
| S=C(NC1CCCCC1)N1CCN(Cc2ccccc2Cl)CC1 | inactive |  |
| CCN(CC)c1ccc(S(=O)(=O)N2CCOCC2)cc1NC(=O)COC(=O)/C=C/c1ccc(O)c(OC)c1 | inactive |  |
| C=CCn1c(SCc2c(C)noc2C)nc2ccccc2c1=O | active: 0.316 µM |  |
| CCOc1ccccc1Nc1ncnc2ccc(Br)cc12 | inactive |  |
| CC1SCC(NC(=O)c2ccc(Cl)cc2)CS1 (stereo not drawn) | inconclusive [cytotoxic, single point] |  |
| COCCN1C(=O)C(=O)/C(=C(/O)c2ccc(S(=O)(=O)N3CCCCC3)cc2)C1c1ccc(O)c(OC)c1 (stereo not drawn) | inactive |  |
| Cc1ccc(Cn2nnc3c(=O)[nH]c(C4CCN(C(=O)c5cccs5)CC4)nc32)cc1 | inconclusive [cytotoxic, single point] |  |
| Cc1ccc2c(c1)N(S(=O)(=O)c1ccc(CN3C(=O)c4cccnc4C3=O)cc1)CCO2 | inactive |  |
| CCOC(=O)C(C(=O)OCC)C1N=C(N)N=C2Oc3ccccc3N21 (stereo not drawn) | active: 10 µM |  |
| O=C(Nc1ccc(Cn2cccn2)cc1)c1ccc(COc2ccccc2Br)cc1 | inconclusive [cytotoxic, partial curve] |  |
